Patent publication US20260258397A1, “REAGENTS AND SYSTEMS FOR […]” (priority 2023, published 2026)

biological target: T1, PYR1^PIRI (Arabidopsis thaliana, UniProt O49686, A160T/E130G/F159T/K59R/N119S/S122Q/S92M/V174A); assay: cell-based; assay type: cell-based; settings: PYR1-PIRI; fit bottom of GFP fluorescence response
T1 construct: expressed in transfected cells; host or cells: S. cerevisiae (2µ plasmid)
T1 sequence (O49686 1-191 K59R/S92M/N119S/S122Q/E130G/F159T/A160T/V174A): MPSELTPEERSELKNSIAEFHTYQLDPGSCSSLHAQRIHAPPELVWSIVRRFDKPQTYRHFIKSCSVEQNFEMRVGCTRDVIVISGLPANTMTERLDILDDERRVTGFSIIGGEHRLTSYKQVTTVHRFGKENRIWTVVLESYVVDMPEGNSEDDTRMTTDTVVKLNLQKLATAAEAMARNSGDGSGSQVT
T1 sequence (Q9CAJ0 178-511 partner): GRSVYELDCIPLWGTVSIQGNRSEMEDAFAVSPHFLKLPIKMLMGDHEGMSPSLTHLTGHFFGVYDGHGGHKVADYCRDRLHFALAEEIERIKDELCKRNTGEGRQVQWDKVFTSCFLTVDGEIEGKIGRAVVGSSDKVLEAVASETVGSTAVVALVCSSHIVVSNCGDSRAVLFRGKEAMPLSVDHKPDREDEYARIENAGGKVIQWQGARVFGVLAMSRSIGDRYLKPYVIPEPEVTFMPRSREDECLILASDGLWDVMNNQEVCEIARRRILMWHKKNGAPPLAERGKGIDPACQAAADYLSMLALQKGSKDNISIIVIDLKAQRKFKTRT
Text: PYR1 variants were used to drive gene expression in an inducible genetic circuit by fusing a zinc finger DNA binding domain (Z4^32) to the N-terminus of PYR1, and the VP64 activation domain 33 to the N-terminus of ΔN-HAB1. The SV40 nuclear localization signal was also fused to the N-terminus of PYR1. A single 2u plasmid was used to express SV40-Z4DBD-PYR1 and VP64-HAB1, while the GFP expression cassette (Z44-CYCcore-GFP-CYC 1term) was integrated at the YPRCΔ15 site on chromosome XVI. GFP fluorescence induced by each circuit was measured 12 h after ligand addition to 1 mL cultures, 30° C. Fluorescence was measured by flow cytometry. […] The fluorescence intensity of each cell was measured using a BD Accuri C6 flow cytometer equipped with auto-loading. The forward scatter, side scatter, and GFP fluorescence (Ex/Em 488/533 nm) were recorded for a minimum of 10,000 events. […]
Three single transformants were picked from selection plates, inoculated in 2 mL of SD-Ura containing 2% glucose in 14 mL culture tubes. After 24 hours of growth at 30° C. in a shaker incubator (200 rpm), the OD600 of each sample was measured and cultures were back diluted to OD600=0.2 in fresh SD-Ura, the total volume of diluted culture was 9 mL. […] The fluorescence intensity of cells within each sample was measured using a BD Accuri C6 flow cytometer equipped with auto-loading from 96 well plates. […]

Row | Structure (SMILES) | Bottom
1 | CCOP(=S)(OCC)SCn1nnc2ccccc2c1=O [Azinphos, azinphos-ethyl] | 15284
2 | CCOP(=S)(OCC)Oc1ccc2c(C)c(Cl)c(=O)oc2c1 [Coumaphos] | 13267

test system: PYR1 mutant receptors (ligand-dependent binding to HAB1); assay: Yeast two-hybrid screens of PYR1 DSM and CB-S libraries for cannabinoid sensors; settings: CB-S1 library screened on 30 μM: JWH-007 PYR1 K59S/V83W/Y120G/F159A; JWH-167 and AB-PINACA Y120G/F159L/A160G; JWH-193 Y120G/F159V/A160G; A9-THC E4G/H115Q/Y120G/A160G

Row | Structure (SMILES) | concentrations to which sensors respond
3 | CCCCCc1cc(O)c2c(c1)OC(C)(C)[C@@H]1CCC(C)=C[C@@H]21 [A9-THC] | μM concentrations
4 | CCCCCn1nc(C(=O)N[C@H](C(N)=O)C(C)C)c2ccccc21 [AB-PINACA] | μM concentrations
5 | CCCCCn1c(C)c(C(=O)c2cccc3ccccc23)c2ccccc21 [JWH-007] | μM concentrations
6 | CCCCCn1cc(C(=O)Cc2ccccc2)c2ccccc21 [JWH-167] | μM concentrations
7 | Cc1ccc(C(=O)c2cn(CCN3CCOCC3)c3ccccc23)c2ccccc12 [JWH-193] | μM concentrations

same assay, conditions: CB-S2 library screened on 50 nM, 25 nM: JWH-015 PYR1 K59N/Y120H/F159L/A160G; JWH-016 V81I/Y120G/F159L/A160G; JWH-072 E4G/K59N/Y120H/F159L/A160G; WIN 55,212 E4G/Y23H/D26G/K59Q/F159A/A160I

Row | Structure (SMILES) | affinity of improved sensors
8 | CCCn1c(C)c(C(=O)c2cccc3ccccc23)c2ccccc21 [JWH-015] | low nM affinity
9 | CCCCn1c(C)c(C(=O)c2cccc3ccccc23)c2ccccc21 [JWH-016] | low nM affinity
10 | CCCn1cc(C(=O)c2cccc3ccccc23)c2ccccc21 [JWH-072] | low nM affinity
